Data taken from PMC4336329 (PLoS ONE, 2015).
In all, about 310,000 compounds went through this assay and about 14,000 (4.5%) showed an effect of 50% or more. The effect is printed as a negative number. This is one part of the list.

Target: human ether-à-go-go-related gene (hERG) potassium channel (human, UniProt Q12809)
Experiment: primary screen, population patch clamp on CHO cells stably expressing hERG
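Further: peak tail current of the secondary pulse compared with the same well before compound.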

Sequence of human ether-à-go-go-related gene (hERG) potassium channel (Q12809 whole entry, looked up): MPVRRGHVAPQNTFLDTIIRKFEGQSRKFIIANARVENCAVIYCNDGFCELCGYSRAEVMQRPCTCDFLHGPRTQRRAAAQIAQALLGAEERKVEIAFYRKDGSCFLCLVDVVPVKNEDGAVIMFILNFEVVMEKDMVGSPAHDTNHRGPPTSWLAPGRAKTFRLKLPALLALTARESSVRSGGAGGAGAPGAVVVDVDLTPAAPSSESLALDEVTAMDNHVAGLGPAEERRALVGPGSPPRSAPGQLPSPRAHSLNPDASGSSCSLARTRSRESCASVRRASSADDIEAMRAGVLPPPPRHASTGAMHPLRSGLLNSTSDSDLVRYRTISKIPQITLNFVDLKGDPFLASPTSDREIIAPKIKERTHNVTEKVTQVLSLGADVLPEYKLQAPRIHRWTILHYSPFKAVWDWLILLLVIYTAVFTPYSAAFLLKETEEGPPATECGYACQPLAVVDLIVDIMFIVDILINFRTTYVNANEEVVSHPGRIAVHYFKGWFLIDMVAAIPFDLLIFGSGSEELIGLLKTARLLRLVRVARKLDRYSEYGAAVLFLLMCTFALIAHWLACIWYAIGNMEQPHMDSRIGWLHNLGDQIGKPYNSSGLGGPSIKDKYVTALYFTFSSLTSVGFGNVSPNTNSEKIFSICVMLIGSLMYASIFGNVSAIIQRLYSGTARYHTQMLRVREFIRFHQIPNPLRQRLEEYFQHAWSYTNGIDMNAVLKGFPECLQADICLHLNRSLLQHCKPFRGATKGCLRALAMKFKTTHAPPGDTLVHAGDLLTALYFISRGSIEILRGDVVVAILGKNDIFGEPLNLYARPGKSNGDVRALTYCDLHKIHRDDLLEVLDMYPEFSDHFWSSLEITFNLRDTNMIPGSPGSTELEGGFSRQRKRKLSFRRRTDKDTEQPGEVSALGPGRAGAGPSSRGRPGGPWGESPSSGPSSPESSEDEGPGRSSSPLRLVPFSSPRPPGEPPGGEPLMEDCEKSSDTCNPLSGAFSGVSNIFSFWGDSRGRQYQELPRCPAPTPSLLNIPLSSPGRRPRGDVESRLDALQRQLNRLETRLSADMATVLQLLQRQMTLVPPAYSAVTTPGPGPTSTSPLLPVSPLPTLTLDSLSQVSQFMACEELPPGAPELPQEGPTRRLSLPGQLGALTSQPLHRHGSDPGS

Structure (SMILES) | hERG current change (%, negative = inhibition) at 10uM [%]
COc1cccc(C(=O)N2CCOCC2)c1 | 20.2
CC(=O)NC1CC2CCCC(C1)N2S(=O)(=O)c1ccccc1 (centres unmarked) | 16.3
Cc1cc(Cl)ccc1NC(=O)C1COc2ccccc2O1 (centres unmarked) | -25.5
COc1ccc(S(=O)(=O)NCC(c2cccnc2)N2CCN(C)CC2)cc1C (centres unmarked) | -62.9
CC(Sc1nnc(CNC(=O)c2ccccc2F)n1C)C(=O)Nc1nccs1 (centres unmarked) | 18.1
CCOC(=O)CNC(=S)SC | 3.34
CSc1nc(Oc2cccc(C(F)(F)F)c2)cc(C(F)(F)F)n1 | 17.1
N#CNC(=Nc1ccccc1)SCc1ccc(C(=O)O)cc1 | 4.72
COc1ccc(C2=NOC(C(=O)Nc3ccc4c(c3)OCO4)C2)cc1OC (centres unmarked) | -4.72
COc1cc2[nH]c(=O)n(-c3ccccc3)c(=O)c2cc1OC | 15.9
CN(Cc1ccccc1)C(=O)c1cccnc1 | 0.506
C=CCn1c(SCC(=O)N(CCO)CCO)nc2sc3c(c2c1=O)CCC3 | 0.851
O=C(NC(c1ccccc1)C(Cl)(Cl)Cl)c1ccccc1 (centres unmarked) | -11.3
O=C(CCCCCNC(=O)N1CCn2c1nc1ccccc12)N[C@@H](C(=O)O)c1ccccc1 | -1.27
S=C(NCc1ccncc1)Nc1ccc(Cl)cc1Cl | 3.3
O=C(O)c1ccccc1N(Cc1ccccc1)C(=O)COc1ccccc1 | 10.8
O=C(Cc1c[nH]c2ccccc12)NC1(C(=O)NC2CCCCC2)CCCCC1 | -4.74
O=C(CSc1nc2ccc(Cl)cc2[nH]1)NCc1ccco1 | -51.8
CCC(CC)C(=O)Nc1c2cnn(-c3ccccc3)c2nc(=O)n1-c1ccccc1 | 10.7
Cc1ccc(S(=O)(=O)N/N=C\c2cc([N+](=O)[O-])ccc2Cl)cc1 | 12.3
Cc1ccc2cccc(S(=O)(=O)Nc3c(C)n(C)n(-c4ccccc4)c3=O)c2n1 | -0.878
O=C(COC(=O)/C=C/c1cccc(C(F)(F)F)c1)NCc1cccs1 | 2.72

Structure (SMILES) | hERG current change (%, negative = inhibition) at 10uM [%]
CCOC(=O)c1[nH]c(C)c(C(=O)OCCN2C(=O)c3ccccc3C2=O)c1C | -1.16
COc1cc2c(cc1OC)C(C(=O)Nc1cc(OC)c(OC)c(OC)c1)C(c1cccnc1)N(C)C2=O (centres unmarked) | -1.11
CCOC(=O)C1=C(C)N=c2s/c(=C/c3ccc(OCC(=O)O)cc3)c(=O)n2C1c1ccc(OC)cc1OC (centres unmarked) | 14.4
CCOC(=O)CSc1ncc(-c2ccc([N+](=O)[O-])cc2)[nH]1 | -61
Cc1cccn2c(=O)nc(SCC(=O)NCc3ccc4c(c3)OCO4)nc12 | -27.1
Cc1ccc(C(=O)Nc2cccc3ccccc23)cc1 | 12.5
COc1cc(OC)c(N(C)S(=O)(=O)c2cccc(C(=O)Nc3nnc(C4CC4)s3)c2)cc1Cl | -1.32
N#Cc1c(N)n(CCNC(=O)c2ccccc2)c2nc3ccccc3nc12 | 22.8
Cc1ccc(OCC(=O)Nc2ccc3c(c2)nc(CCN2CCN(C)CC2)n3C)cc1 | -55.6
N#Cc1c(N)nc2c(c1-c1cccc(O)c1)CCCCCC2 | -7.92
CCc1ccc(NC(=O)C(=O)NNC(=O)c2cccc(OC)c2)cc1 | -3.43
CCN(CC)c1ccc(/C=C(\C#N)C(=O)c2ccc(Br)cc2)cc1 | 5.89
O=C(Nc1ccsc1C(=O)N1CCCC1)c1ccccc1 | 6.81
c1ccc(-n2ncc3c(N4CCC5(CC4)OCCO5)ncnc32)cc1 | 0.94
O=C(CSc1nnc(-c2cccnc2)n1Cc1ccco1)c1ccc2ccccc2c1 | -45.6
O=c1c2cc(Cl)ccc2[nH]c(=S)n1Cc1cccs1 | -5.85
CCOC(=O)c1nn(-c2cccc(Cl)c2)c2nc(CC(C)C)c(C#N)c(=O)n12 | -4.52
O=C(N/N=C/C=C\c1cccc([N+](=O)[O-])c1)c1cccnc1 | -13.2
Cc1ccc(COC(=O)c2cc(S(=O)(=O)N3CCCCC3)ccc2N2CCOCC2)cc1 | -13.9
CCn1c(CSc2nnc(-c3ccoc3C)n2C)nc2cc(S(=O)(=O)N(C)C)ccc21 | 8.81
CC(=O)c1cc(F)c(N2CCN(C(=O)c3ccco3)CC2)cc1C | -18.5
COc1ccc2c(c1)c(=O)oc1c(C)c(OCC(=O)N3CCc4ccccc4C3)ccc12 | 7.06

Structure (SMILES) | hERG current change (%, negative = inhibition) at 10uM [%]
O=C(Nc1ccc(Br)cc1Br)C1CC(=O)N(Cc2ccccc2)C1 (centres unmarked) | 10.7
CCOC(=O)C(NC(C)=O)(Nc1ccc(S(=O)(=O)Nc2cc(C)on2)cc1)C(F)(F)F (centres unmarked) | 5.6
CSc1nnc(NC(=O)c2ccc3c(c2)OCO3)s1 | 13.3
CC(=O)c1ccc(OCC(=O)N(CCC2=CCCCC2)c2c(N)n(Cc3ccccc3)c(=O)[nH]c2=O)cc1 | -19.6
CC(=O)N/C(N)=N/c1nc(=O)c2ccccc2s1 | 12.1
Cc1ccc(S(=O)(=O)NC(C)(C)CN2CCC(Cc3ccccc3)CC2)cc1.O=C(O)C(=O)O | -64.8
Cc1ccc(CNC(=O)CCS(=O)(=O)c2ccc3c(c2)NC(=O)CS3)cc1 | -9.45
Cc1ccnc(NC(c2cccnc2)c2ccc3cccnc3c2O)c1 (centres unmarked) | -22.5
O=C(NC(=S)NCCN1CCOCC1)c1ccc(Cl)cc1 | -13.2
O=C(CNC(=O)c1ccco1)Nc1ccc(N2CCCCCC2)cc1 | -7.71
O=C(OCc1nnn(Cc2ccccc2)c1-c1c(COC(=O)c2ccccc2)nnn1Cc1ccccc1)c1ccccc1 | -2.74
CN(Cc1ccccc1)c1nc2c(c(=O)[nH]c(=O)n2C)n1Cc1ccccc1Cl | -21.3
O=C(Cn1cnc2c(cnn2-c2ccc(Cl)cc2)c1=O)NCC1CCCO1 (centres unmarked) | -5.12
COc1ccccc1NC(=O)N1CCN(c2ccnc3cc(Cl)ccc23)CC1 | -80.5
CCn1cc(C(=O)OCC(=O)OC2CC(C)CCC2C(C)C)c(=O)c2ccc(C)nc21 (centres unmarked) | -51.8
CCc1ccc(C(=O)NC(CC(C)C)C(=O)O)cc1 (centres unmarked) | -2.4
O=C1c2ccccc2C(=O)N1Cc1ccccc1F | 13
CCOC(=O)C1CCN(C(=O)NS(=O)(=O)c2ccc(C)cc2)CC1 | 32.5
Cc1nc2ccccc2n1Cc1n[nH]c(=S)n1-c1ccc(Cl)cc1 | 17.6
CN(c1cccc(NC(=O)CSc2ccc(Cl)cc2)c1)S(C)(=O)=O | -10.9
O=C(NCC(=O)N(Cc1ccccc1)C(C(=O)NC1CCCC1)c1cccnc1)c1ccco1 (centres unmarked) | 13.8
CCCOP(=O)(OCCC)C(NC(=O)c1cc(OC)c(OC)c(OC)c1)c1ccccc1 (centres unmarked) | -0.336

Structure (SMILES) | hERG current change (%, negative = inhibition) at 10uM [%]
CN(Cc1ccccc1)C(=O)c1[nH]cnc1C(=O)Nc1cccc(Cl)c1 | 11.9
CC(=O)Nc1ccc(S(=O)(=O)NCCC(=O)OCc2nc(N)nc(Nc3ccccc3C)n2)cc1 | 5.36
O=C(CN1CCCCC1)N1CCCc2ccccc21.O=C(O)C(=O)O | 2.82
Cc1sc2ncn(/N=C/c3ccco3)c(=O)c2c1C | -2.43
CCCc1cc(=O)[nH]c(SCC(=O)Nc2sc(C(N)=O)c(C)c2C(=O)OCCOC)n1 | -23
CCOC(=O)N1CCN(Cc2nnc(-c3ccccc3Cl)o2)CC1.Cl | 11.4
COc1ccc(OC)c(Cc2nnc(CCC(=O)N3CCCCCC3)o2)c1 | 7.7
CC1CN(C(=O)/C=C/c2ccc3c(c2)OCO3)CC(C)O1 (centres unmarked) | -21
Cc1ccccc1-n1c(SCC(=O)O)nc2sc3c(c2c1=O)CCCC3 | 7.7
CCCNc1c(NS(=O)(=O)c2ccc(C)cc2C)c(=O)oc2ccccc12 | -52.2
Cc1cccn2c(=O)c(/C=N/O)c(N3CCCC3)nc12 | -14.3
Cc1ccc(S(=O)(=O)NC(C)C(=O)N2CCOCCOCCOCCOCC2)cc1 (centres unmarked) | 7.04
O=C(CCc1ccccc1)NNC(=O)COc1ccc(Cl)cc1 | 25.5
CCOCCCNC(=O)CSc1nnc(-c2ccc(S(=O)(=O)N3CCCC3)cc2)n1C | 11.2
Cc1oc(-c2cccc(Cl)c2)nc1CS(=O)(=O)CC(=O)NCCCN1CCOCC1 | 7.33
COc1ccc(CN(C(=O)c2cc(=O)c3cc(C)cc(C)c3o2)C2CCS(=O)(=O)C2)cc1 (centres unmarked) | -49.2
CC(C)Oc1ccc(C(=O)NC2CCS(=O)(=O)C2)cc1 (centres unmarked) | 18.8
O=C(c1ccco1)N(Cc1ccccc1)c1cccc([N+](=O)[O-])c1 | -38.3
CC(Sc1nnnn1C)C(=O)Nc1ncc(Cl)cc1Cl (centres unmarked) | -8.87
N#Cc1ccc(-c2nc3ccccc3c(=O)n2O)cc1 | 16.6
